Results taken from US20180346594A1.
A number of entries come with more than one value. This is not the full list of results. There may be further records. Values that stand side by side appear to be repeats (runs, samples, wells or individuals); one of them may be the mean. Signs of the kind (2×) stand for listed records that agree.

Legend:
[1] = target: 16C3 antigen (human colorectal and pancreatic carcinoma-associated antigen, CPAA, recognized by the 16C3 antibody) (human); assay: FACS, CFPAC-1 cells, CHO supernatant
[2] = target: 16C3 antigen (human colorectal and pancreatic carcinoma-associated antigen, CPAA, recognized by the 16C3 antibody) (human); assay: FACS, LS174T cells, CHO supernatant

B1: H16C3-Abb* (optimized humanized 16C3 antibody) (antibody, from a related filing, V domains shown, part only)
VH: QVQLVQSGAEVKKPGASVKVSCKASGYTFTDYAMHWVRQAPGQRLEWMGLISTYSGDTKYNQNFQGRVTMTVDKSASTAYMELSSLRSEDTAVYYCARGDYSGSRYWFAYWGQGTLVTVSS
VL: DIQMTQSPSSLSASVGDRVTITCQASENIYGALNWYQRKPGKSPKLLIYGASNLATGMPSRFSGSGSGTDYTFTISSLQPEDIATYYCQQVLSSPYTFGGGTKLEIKR
[1]
  % binding to CFPAC-1 cells: 98.6 (2×), 97.7, 98.7, 99.1% [lines of one column]
  mfi: 411, 299, 486, 371, 447 mfi [lines of one column]
[2]
  % binding to LS174T cells: 54.4, 51.1, 55.2, 53.8, 56.2% [lines of one column]
  mfi: 374, 299, 402, 333, 407 mfi [lines of one column]
